Results: PubChem BioAssay AID1919006 (Molecular Pharmacology Branch, DTP, NCI, 2023)
The source holds more than one record for some entries. The other results are left out here. An entry can have further records. The records of an entry are repeats across runs, samples, wells, individuals or studies. Marks such as (2×) say how often a value occurs here.

Test system: 885512-296-R-J2-PDC complex spheroid growth, % test/control
Experiment: Anticancer human tumor 885512-296-R-J2-PDC patient-derived breast carcinoma cell line growth inhibition [AhR]
Settings: for viability, T/C: stronger effect = lower value; for IC50: compound alone
Source text: Multicellular complex tumor spheroid response to aryl hydrocarbon receptor antagonists in combination with a variety of drugs and investigational agents in selected tumor cell lines
The current study was undertaken to assess response to aryl hydrocarbon receptor antagonists in combination with standard-of-care drugs and investigational agents in solid tumor complex spheroid models. Complex spheroids include a stromal component modeled by human endothelial cells (HUVEC) and fibroblasts modeled by human mesenchymal stem cells (MSCs). The concentration ranges selected for each drug and investigational agent were based upon clinically achievable concentrations if the clinical Cmax of the agent was known.
Compounds. The drugs and investigational agents: BAY 2416964 (NSC825713), GNF351 (NSC835774), CH-223191 (NSC835775), CPI-455 (NSC825282), aza-TdCyd (NSC777586), decitabine (NSC127716), belinostat (NSC758774), entinostat (NSC756642), pevonedistat (NSC761192), tazemetostat (NSC777109), talazoparib (NSC765396), olaparib (NSC753686), selinexor (NSC780203), nedisertib (M3814, NSC802822), bortezomib (NSC756655), venetoclax (NSC766270), doxorubicin (NSC123127), elimusertib (BAY189344, NSC800525), ceralasertib (AZD6738, NSC777638), TAK-243 (NSC785004), alisertib (NSC759677), etoposide (NSC141540), topotecan (NSC609699), eribulin (NSC707389), gemcitabine (NSC613327), carboplatin (NSC241240), cisplatin (NSC119875), and SN-38 (NSC673596) were obtained from the National Cancer Institute (NCI) Developmental Therapeutics Program Chemical Repository (32). The FDA-approved anticancer drug set is available from the Developmental Therapeutics Program at https://dtp.cancer.gov/organization/dscb/obtaining/available plates.htm. […] The stock solutions were prepared in dimethyl sulfoxide (DMSO, Sigma-Aldrich, St. Louis, MO, cat. D2650), except for the platinum compounds which were prepared in saline (Quality Biological, Gaithersburg, MD, cat. 114-055-101), at 800-fold the tested concentration and stored at -70 degrees C prior to their use. All drugs and investigational agents were tested over a range starting from a high concentration at or near the clinical Cmax and decreasing in half-log increments. If the clinical Cmax for an agent had not been determined, the highest concentration tested was 10 microM (Table 1).
Cell Culture. All cells were maintained in an incubator at 37 degrees C and 5% CO2 with 95% humidity. The PDC lines were cultured according to standard operating procedures established by the NCI PDMR (https://pdmr.cancer.gov). Briefly, all PDCs were thawed and cultured in Matrigel-coated flasks prepared with a working solution of 1X Ham's F-12 nutrient mix, without supplementation (Invitrogen, Waltham, MA, cat. 11765054), 100 U/mL penicillin-streptomycin (Invitrogen, cat. 15140122), and 2.5% Matrigel (Corning Inc., Corning, NY, cat. 354248) for the first three passages. All PDCs were cultured in complete DMEM/F-12 media containing advanced DMEM/F-12 (Invitrogen, cat. 12634028), 4.9% defined fetal bovine serum, heat inactivated (HyClone Laboratories Inc., Logan, UT, cat. SH30070.03HI), 389 ng/mL hydrocortisone (Sigma-Aldrich, cat. H4001), 9.7 ng/mL human EGF recombinant protein (Invitrogen, cat. PHG0313), 23.4 microg/mL adenine (Sigma-Aldrich, cat. A2786), 97.3 U/mL penicillin-streptomycin (Invitrogen, cat. 15140122), 1.9 mM L-glutamine (Invitrogen, cat. 25030081), and 9.7 microM Y-27632 dihydrochloride (Tocris Bioscience, Bristol, United Kingdom, cat. 1254). The PDCs were cultured in complete DMEM/F12 media without 10 microM Y-27632 dihydrochloride for at least two passages prior to the screen. The established cell lines NCI-H1341 and […] were cultured in DMEM/F-12, HEPES (Invitrogen, cat. 11330032), 5% defined fetal bovine serum (HyClone Laboratories Inc., cat. SH30070.03), ITS premix universal culture supplement [insulin (5 microg/mL), transferrin (5 microg/mL), and selenious acid (5 ng/mL)] […]
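Note: spheroids exposed to compounds for seven days.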

IC50	Compound	viability, T/C (compound alone 0.1 µM)	viability, T/C (compound alone 3.16 µM)	viability, T/C (compound alone 0.316 µM)	viability, T/C (compound alone 1 µM)	IC50 (run of 08/22/2022)
–	CC(CO)NC(=O)c1cc(-c2ccc(Cl)cc2)nn(-c2cnn(C)c2)c1=O (stereo not given)	105, 91.7, 103 (2×), 97, 102, 97.8, 99.2, 95.4, 85.8, 99.1, 84.2, 96.1, 104 (2×), 95.1, 96.3, 111, 90.3, 90.5, 106%	105 (2×), 115, 82.6, 102, 106, 83.6, 97.4, 93.1, 95.4, 101, 98.4, 92.5, 104, 99, 90.9, 100, 96%	–	–	–
–	Cc1cncc(-c2nc(NCCc3c[nH]c4ccccc34)c3ncn(C(C)C)c3n2)c1	–	–	98, 121, 103, 101, 95.7 (2×), 100, 92.9, 113 (2×), 122, 92.6, 104, 106 (2×), 114, 109, 93.4, 91.8, 91.6%	99.2, 95.9, 93.6, 81.3, 85.8, 82.2, 79.9, 85.5, 99.9, 96.6, 90.5, 96.8, 77.1, 103, 83.7, 89.7 (2×), 88, 67.1, 81.7%	–
–	Cc1ccccc1N=Nc1ccc(NC(=O)c2ccnn2C)c(C)c1	108 (2×), 103, 101, 98.4, 113 (2×), 136, 99.7, 114, 105, 100, 95.2, 99, 91, 112, 111, 97.5, 106%	83, 93.7, 84.3, 80.3, 81.9, 95.1, 103, 110, 78.4, 87.6, 79.1, 83.2, 79, 97.5, 96.6, 81.1, 96.2, 92, 94.2, 87.3%	104, 106 (2×), 107, 95.9, 109, 116, 113 (2×), 126, 118, 117 (2×), 97.6, 96.7, 123, 98.7, 114, 90.8, 105%	98.3, 109, 104 (2×), 102 (3×), 105 (2×), 107, 108, 110, 97.7, 96.2, 101, 116, 87.7, 96.4, 112, 103%	> 10 µM, 9.3 µM, 9.82 µM, 9.9 µM, 8.77 µM, 9.61 µM, 9.7 µM, 8.3 µM, 9.23 µM, 9.88 µM
39.4 nM, 52.3 nM, 3.86 µM	COc1cc(Nc2ncc3c(n2)-c2ccc(Cl)cc2C(c2c(F)cccc2OC)=NC3)ccc1C(=O)O	–	–	–	–	–
